Laboratory results as given in the supplement of paper PMC4967469.
pIC50: −log10 of the molar value. The IC50 comes from the fitted curve, where viability falls to half of the control; fits outside the tested doses are given as limits. AUC is the area under the same curve over the 256-fold range up to the top dose, as a fraction; values near 1 show little effect. For part of these data: The top dose, if marked as inferred, was calculated from the reported fits.

Assays:
Assay in all cases: Viability of human cancer cell lines after 72 h of drug (GDSC screen)
Roscovitine = compound: CC[C@H](CO)Nc1nc(NCc2ccccc2)c2ncn(C(C)C)c2n1 [Roscovitine]; conditions: top dose 16 µM; top dose inferred
Procedure: (§1)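 Human cancer cell lines in 384-well plates, medium with 10% serum, drug for 72 h over a 256-fold dose range (nine 2-fold or five 4-fold steps up to the top dose). Adherent lines were fixed and stained with the nucleic acid dye Syto60, suspension lines read with resazurin; signal relative to control wells, capped at 0 and 100%. One two-parameter sigmoid per drug and line, fitted in a mixed model over all curves with the slope shared within a line.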

Midostaurin = compound: CO[C@@H]1[C@H](N(C)C(=O)c2ccccc2)C[C@H]2O[C@]1(C)n1c3ccccc3c3c4c(c5c6ccccc6n2c5c31)C(=O)NC4 [Midostaurin]; conditions: top dose 0.512 µM; top dose inferred
Procedure: as §1

Mitomycin C = compound: CO[C@@]12[C@H](COC(N)=O)C3=C(C(=O)C(C)=C(N)C3=O)N1C[C@@H]1N[C@@H]12 [Mitomycin C]; conditions: top dose 16 µM
Procedure: as §1

Bosutinib = compound: COc1cc(Nc2c(C#N)cnc3cc(OCCCN4CCN(C)CC4)c(OC)cc23)c(Cl)cc1Cl [Bosutinib]; conditions: top dose 2 µM
Procedure: as §1

NVP-BHG712 = compound: Cc1ccc(C(=O)Nc2cccc(C(F)(F)F)c2)cc1Nc1nc(-c2cccnc2)nc2c1cnn2C [NVP-BHG712]; conditions: top dose 10.24 µM; top dose inferred
Procedure: as §1

IOX2 = compound: O=C(O)CNC(=O)c1c(O)c2ccccc2n(Cc2ccccc2)c1=O [IOX2]; conditions: top dose 0.1 µM; top dose inferred
Procedure: as §1

Cell Line	AUC (Roscovitine)	pIC50 (Roscovitine)	AUC (Midostaurin)	pIC50 (Midostaurin)	AUC (Mitomycin C)	pIC50 (Mitomycin C)	AUC (Bosutinib)	pIC50 (Bosutinib)	AUC (NVP-BHG712)	pIC50 (NVP-BHG712)	AUC (IOX2)	pIC50 (IOX2)
D-502MG (glioma, adherent)	0.948	< 4.80	0.96	< 6.29	0.897	< 4.80	0.905	< 5.70	0.883	< 4.99	0.974	< 7.00
DB (B-cell lymphoma, suspension)	0.919	< 4.80	0.912	< 6.29	0.366	6.39	0.899	< 5.70	0.783	5.31	0.981	< 7.00
CAS-1 (glioma, adherent)	0.981	< 4.80	0.732	6.72	0.682	5.41	0.982	< 5.70	0.911	< 4.99	0.979	< 7.00
NCI-H1770 (non-small cell lung carcinoma, suspension)	0.977	< 4.80	0.852	6.49	0.27	6.61	0.992	< 5.70	0.867	5.13	0.987	< 7.00
MZ1-PC (pancreas, adherent)	0.977	< 4.80	0.786	6.55	0.383	6.36	0.981	< 5.70	0.601	5.89	0.977	< 7.00
DSH1 (bladder, adherent)	0.961	< 4.80	0.901	< 6.29	0.182	6.93	0.914	< 5.70	0.989	< 4.99	0.988	< 7.00
EW-1 (Ewing sarcoma, semi-adherent)	0.942	< 4.80	0.897	< 6.29	0.164	6.97	0.978	< 5.70	0.956	< 4.99	0.988	< 7.00
NMC-G1 (glioma, adherent)	0.875	< 4.80	0.805	6.48	0.284	6.68	0.921	< 5.70	0.858	< 4.99	0.96	< 7.00
CA46 (Burkitt lymphoma, suspension)	0.934	< 4.80	0.877	< 6.29	0.497	6.01	0.967	< 5.70	0.669	5.71	0.982	< 7.00
NB-4 (acute myeloid leukaemia, suspension)	0.912	4.80	0.916	< 6.29	0.049	> 7.20	0.846	5.97	0.242	6.86	0.99	< 7.00
TE-15 (oesophagus, suspension)	0.982	< 4.80	0.853	6.31	0.176	7.05	0.819	5.88	0.947	< 4.99	0.982	< 7.00
JM1 (B-cell lymphoma, suspension)	0.951	< 4.80	0.886	6.37	0.183	6.87	0.92	< 5.70	0.885	5.07	0.984	< 7.00
SK-MEL-1 (melanoma, suspension)	0.97	< 4.80	0.986	< 6.29	0.614	5.71	0.984	< 5.70	0.906	< 4.99	0.992	< 7.00
TE-6 (oesophagus, adherent)	0.903	< 4.80	0.939	< 6.29	0.478	6.06	0.984	< 5.70	0.925	< 4.99	0.984	< 7.00
SLVL (B-cell lymphoma, suspension)	0.938	< 4.80	0.943	< 6.29	0.247	6.75	0.964	< 5.70	0.863	5.01	0.984	< 7.00
NKM-1 (acute myeloid leukaemia, suspension)	0.91	< 4.80	0.534	7.40	0.073	> 7.20	0.885	< 5.70	0.433	6.38	0.982	< 7.00
LB771-HNC (head and neck, adherent)	0.903	< 4.80	0.952	< 6.29	0.454	6.14	0.725	6.19	0.951	< 4.99	0.963	< 7.00
EC-GI-10 (oesophagus, adherent)	0.989	< 4.80	0.986	< 6.29	0.755	5.27	0.876	5.71	0.958	< 4.99	0.988	< 7.00
AM-38 (glioma, semi-adherent)	0.982	< 4.80	0.926	< 6.29	0.306	6.55	0.988	< 5.70	0.861	5.05	0.987	< 7.00
